In PubChem BioAssay AID1030 (National Center for Advancing Translational Sciences (NCATS), 2008):
Out of some 220,000 compounds screened, about 16,000 (7.3%) were called active. Inconclusive means that the source gave no clear call. Such entries were picked first, then a sample of the others. Calls come from the whole dose curve; as a rule, active = well fitted inhibition curve with a large enough effect (not every such curve was filed as active); inconclusive = small, poorly fitted or top-dose-only effect, or another doubt; inactive = no such curve, though single readings can be large or run the other way. No potency is given beside an inconclusive call; the fits are too rough.

Target: Aldehyde dehydrogenase 1A1 (Homo sapiens) (UniProt P00352)
Experiment: qHTS Assay for Inhibitors of Aldehyde Dehydrogenase 1 (ALDH1A1)
Details: Purified ALDH1A1, NADH fluorescence, propionaldehyde substrate; series mostly up to 75.3 µM
Potency is the fitted concentration of half-maximal effect; tags give direction and shape of the fitted curve.

Sequence of UniProt P00352 (P00352 whole entry, looked up): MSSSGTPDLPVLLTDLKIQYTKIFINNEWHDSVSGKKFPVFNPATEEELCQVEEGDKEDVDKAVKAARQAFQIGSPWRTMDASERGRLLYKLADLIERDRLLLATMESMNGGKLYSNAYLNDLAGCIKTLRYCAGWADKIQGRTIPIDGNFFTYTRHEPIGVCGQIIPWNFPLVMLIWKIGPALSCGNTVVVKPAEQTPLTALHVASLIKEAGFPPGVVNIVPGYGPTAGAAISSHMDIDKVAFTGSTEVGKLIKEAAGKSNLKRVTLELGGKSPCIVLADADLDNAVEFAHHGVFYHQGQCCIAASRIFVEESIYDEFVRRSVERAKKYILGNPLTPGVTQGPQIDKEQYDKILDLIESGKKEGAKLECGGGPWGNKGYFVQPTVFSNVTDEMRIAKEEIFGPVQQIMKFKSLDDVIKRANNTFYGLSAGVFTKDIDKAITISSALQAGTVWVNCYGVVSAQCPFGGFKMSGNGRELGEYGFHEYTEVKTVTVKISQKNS

| SMILES | Potency |
| --- | --- |
| CC(=O)N1CCc2cc(C(=O)CN3CCN(c4cccc(Cl)c4)CC3)ccc21 | active: 6.31 µM |
| Cc1cc(NC(=O)c2cc(-c3cccs3)nc3ccccc23)no1 | inconclusive [inhibitor, partial curve] |
| CCCc1ccc(/C=C2\C(=O)c3ccccc3C(O)=C2C(=O)OCC)cc1 | inconclusive [inhibitor, single point] |
| C=CCNC(=S)NN=C1CCCCCCC1 | active: 0.891 µM |
| Cc1ccccc1NC(=O)Cc1nc(CCl)cs1 | active: 11.2 µM |
| COC(=O)c1ccc(N(C(=O)c2ccco2)C(C(=O)NC2CCCC2)c2ccco2)cc1 (stereo not given) | inconclusive [inhibitor, single point] |
| O=C(Nc1ccc(NC(=O)c2ccccc2)nc1)c1ccncc1 | inactive |
| CCSc1nnc(NC(=O)C2Cc3ccccc3CN2C(=O)c2ccco2)s1 (stereo not given) | inconclusive [inhibitor, single point] |
| S=C(Nc1ccc(Cc2ccncc2)cc1)Nc1cccc(Cl)c1 | inconclusive [inhibitor, single point] |
| CSc1ccc(Cl)c(C(=O)NCCOc2ccccc2)c1 | inconclusive [inhibitor, single point] |
| CC(=O)N1CCc2cc(S(=O)(=O)Nc3ccccc3N3CCN(C)CC3)ccc21 | inactive |
| CN(CCO)c1cc(N2CCN(C(=O)c3ccco3)CC2)c2nonc2c1[N+](=O)[O-] | inconclusive [inhibitor, single point] |
| Cc1nn(C)cc1C(=O)NNC(=S)Nc1ccc(Cl)cc1 | inconclusive [inhibitor, single point] |
| C=CCn1c(SCc2nc3sc(C(=O)O)c(C)c3c(=O)[nH]2)nnc1-c1ccc(C(C)(C)C)cc1 | active: 20 µM |
| CCN1CCCC1Cn1c(-c2ccccc2)nc2c(NC3CCCCC3)nc(C)nc21 (stereo not given) | inconclusive [inhibitor, partial curve] |
| Cc1ccc(-c2cc(C(F)F)n3ncc(C(=O)N4CCN(c5ccccn5)CC4)c3n2)cc1 | inconclusive [inhibitor, single point] |
| Cc1sc2nc(CN3CCC(C)CC3)nc(Cl)c2c1C | inactive |
| COC(=O)N[C@H](CC(C)=O)c1ccccc1 | inactive |
| CCNc1c(NC(C)=O)c(=O)oc2ccccc12 | inactive |
| C=CCNC(=O)/C(C#N)=C\c1cc(Cl)c(OCC)c(OC)c1 | inconclusive [inhibitor, partial curve, poor fit] |
| O=C(COc1ccc(S(=O)(=O)N2CCCCC2)cc1)NC1CCCCC1 | inconclusive [inhibitor, partial curve] |
| COc1cc(CNC2CCCCCC2)cc(OC)c1 | inactive |
| C=CCOC(=O)C1=C(C)NC(C)=C(C(=O)OCC=C)C1c1cn(-c2ccccc2)nc1-c1ccco1 | inconclusive [inhibitor, single point] |

| SMILES | Potency |
| --- | --- |
| Cc1cc(C(=O)CSc2nnc(-c3cccnc3)n2-c2ccccc2F)c(C)n1CC1CCCO1 (stereo not given) | inconclusive [inhibitor, single point] |
| CCN(CC)c1ccc(/C=N/NC(=O)Nc2nonc2N)cc1 | inconclusive [inhibitor, partial curve] |
| NNC(=O)c1sccc1OCc1cccc(C(F)(F)F)c1 | inconclusive [inhibitor, partial curve] |
| Oc1ccccc1-c1nnc(-c2ccc(C(F)(F)F)cc2)o1 | inconclusive [inhibitor, partial curve] |
| CS(=O)(=O)c1nc(-c2ccccc2)cc(C(F)(F)F)n1 | inactive |
| Cc1ccc(NC(=O)C(C)[n+]2ccccc2)cc1[N+](=O)[O-] (stereo not given) | inactive |
| CCCc1c(C(=O)Nc2cc(C(C)(C)C)on2)cnn1-c1ccccc1 | inconclusive [inhibitor, full curve] |
| CC(/C=N/NC(=O)c1sc(N)nc1C)=C\c1ccccc1 | inconclusive [inhibitor, single point] |
| Cc1cc(NC(=O)CN2CCCCC2)no1 | inconclusive [inhibitor, single point] |
| CCN1CCN(C(=O)C2CCC(CNS(=O)(=O)c3ccccc3)CC2)CC1 (stereo not given) | inactive |
| CS(=O)(=O)N1CCN(c2ccccc2NC(=O)CSc2nnc(-c3ccco3)o2)CC1 | active: 12.6 µM |
| CCCn1nnc(NC(=O)C(C)Oc2ccc(Cl)cc2Cl)n1 (stereo not given) | inconclusive [inhibitor, single point] |
| COc1cc(/C=C/C(=O)N2CCCCC2=O)cc(OC)c1OC | inconclusive [inhibitor, partial curve] |
| COc1ccc(O[C@H]2C=C[C@@H](c3ccccc3)O[C@H]2COC(=O)N2CCCCC2)cc1 | inconclusive [inhibitor, partial curve] |
| c1ccc(-c2ccccc2OCCCN2CCCCCC2)cc1 | inconclusive [inhibitor, partial curve, poor fit] |
| O=S(=O)(/C=C/c1ccccc1)Nc1cccc(S(=O)(=O)NC2=NCCC2)c1 | inconclusive [inhibitor, partial curve] |
| CN(C)S(=O)(=O)c1cc(S(=O)(=O)N(C)C)c(Cl)cc1N | active: 12.6 µM |
| O=C(COC(=O)Cn1cnc2ccccc21)Nc1cccc(S(=O)(=O)N2CCOCC2)c1 | inconclusive [inhibitor, partial curve] |
| COc1cc2ccccc2cc1C(=O)OCC(=O)NC1CCS(=O)(=O)C1 (stereo not given) | inconclusive [inhibitor, partial curve] |
| O=C(CCCN1C(=O)c2cccnc2C1=O)Nc1ccc(Br)cc1 | inactive |
| O=C(CSc1cccc[n+]1[O-])c1cc(Cl)ccc1Cl | inconclusive [inhibitor, partial curve] |
| COc1ccc(NC(=O)c2oc3ccccc3c2NC(=O)c2ccc3c(c2)OCO3)cc1 | inconclusive [inhibitor, single point] |
